# PubChem BioAssay AID624417 (National Center for Advancing Translational Sciences (NCATS), 2012)
# About 6,400 (1.6%) of roughly 410,000 compounds were called active. The shares of active, inactive and inconclusive entries below differ from those in the screen. Calls follow the shape of the dose curve; as a rule, active = well fitted inhibition curve with a large enough effect; inconclusive = small, poorly fitted or top-dose-only effect; inactive = no such curve, though single readings can be large or run the other way. No potency is given beside an inconclusive call; the fits are too rough.
# Target: Glucagon-like peptide 1 receptor (Homo sapiens) (UniProt P43220)
# UniProt P43220, sequence (P43220 whole entry, looked up): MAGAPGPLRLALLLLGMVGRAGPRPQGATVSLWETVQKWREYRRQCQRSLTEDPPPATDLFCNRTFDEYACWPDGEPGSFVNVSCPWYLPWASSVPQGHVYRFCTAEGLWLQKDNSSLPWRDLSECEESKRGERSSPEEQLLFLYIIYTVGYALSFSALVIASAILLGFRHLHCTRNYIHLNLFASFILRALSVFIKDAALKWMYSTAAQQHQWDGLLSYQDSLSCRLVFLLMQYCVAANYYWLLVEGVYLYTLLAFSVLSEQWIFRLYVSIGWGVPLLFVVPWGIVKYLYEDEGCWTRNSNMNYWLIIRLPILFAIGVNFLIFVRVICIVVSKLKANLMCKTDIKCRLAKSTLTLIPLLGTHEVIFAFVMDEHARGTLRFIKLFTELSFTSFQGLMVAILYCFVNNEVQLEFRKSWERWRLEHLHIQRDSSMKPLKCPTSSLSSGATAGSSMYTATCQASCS
# Assay: qHTS of GLP-1 Receptor Inverse Agonists (Inhibition Mode); also: nearly all actives have a fitted effect of over 55% in size
# Settings: HEK293 GLP-1R CRE-luciferase, luminescence, 24 h, GLP-1R form is constitutively active; series mostly up to 38.3 µM
# Method in brief: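 HEK293 cells stably co-expressing a cAMP-responsive luciferase reporter and constitutively active GLP-1R were seeded, incubated 12 h, then exposed to compounds for 24 h at 37 C. Luminescence was read 12 min after detection reagent; inverse agonists lower signal.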
# Potency is read from the fitted curve at half-maximal effect; tags tell the direction and shape of the fitted curve.
row,Compound,Potency
1,CC1(C(=O)NS(=O)(=O)Cc2ccccc2)CCN1C(=O)C1(c2ccc(Cl)cc2)CCC1 (stereo not given),"inconclusive [inhibitor, single point]"
2,Cc1cccc(CN2C(=O)c3ccccc3Sc3ccc(C(=O)NCc4cccs4)cc32)c1,"inconclusive [inhibitor, partial curve, poor fit]"
3,Cc1ccc(/C=N/NC(=O)c2sccc2OCc2ccc(F)cc2)cc1,"inconclusive [inhibitor, partial curve, poor fit]"
4,O=C(N/N=C/c1ccc(Br)s1)c1ccco1,inactive
5,CCCN(CC1CC1)C(=S)Nc1ccc(Oc2ccccc2)cc1,"inconclusive [inhibitor, partial curve, poor fit]"
6,CCCOc1ccc(CN(CCC#N)C(=S)NC(=O)c2ccccc2)cc1,"inconclusive [inhibitor, partial curve, poor fit]"
7,COc1ccc(-c2noc(CN(C)S(=O)(=O)c3ccc(Cl)cc3)n2)cc1OC,"inconclusive [inhibitor, single point]"
8,COc1ccc(CN(C)C(=O)CC(c2ccccc2)c2ccccc2)cc1,"inconclusive [inhibitor, single point]"
9,C=CCNc1nc(C(=O)OC(C)C(=O)c2ccc(C)cc2)cs1 (stereo not given),"inconclusive [inhibitor, single point]"
10,C=CCOc1ccc2c(c1)C(=NO)c1cc(OCC=C)ccc1-2,"inconclusive [inhibitor, partial curve]"
11,Cc1ccc(S(=O)(=O)N2CCN(Cc3ccco3)CC2)c(C)c1,"inconclusive [inhibitor, full curve, poor fit]"
12,FC(F)(F)c1ccc(C2[C@H]3CN(CC4CCCCC4)[C@H](c4ccccc4)C34CC2(c2cccnc2)C4)cc1 (stereo not given in full),"inconclusive [inhibitor, partial curve, poor fit]"
13,OCC1(Cc2ccccc2)CCCN(Cc2cn[nH]c2-c2ccccc2)C1 (stereo not given),"inconclusive [inhibitor, single point]"
14,COc1ccc(C(=O)N2CCCC2)cc1,inactive
15,Cc1cc(C)cc(NC(=O)CN2C(=O)NC(C)(c3ccccc3)C2=O)c1 (stereo not given),"inconclusive [inhibitor, partial curve, poor fit]"
16,COc1ccc(C(=O)Nc2nnc(-c3ccccc3)s2)cc1,inactive
17,C=C(C)C(O)CC/C(C)=C/Cc1c(O)ccc(C(=O)/C=C/c2ccc(O)cc2)c1O (stereo not given),"inconclusive [inhibitor, partial curve, poor fit]"
18,O=C(c1cccc(Cl)c1)N1CCN(c2ccc3c(c2)C2CC3CCN2C(=O)OCc2ccccc2)CC1 (stereo not given),"inconclusive [inhibitor, single point]"
19,O=C(c1ccccc1)N1CCN(CC2CC=CCC2)CC1 (stereo not given),inactive
20,Cc1nnc(Sc2cc(NCCCO)c([N+](=O)[O-])c3nonc23)s1,"inconclusive [inhibitor, single point]"

row,Compound,Potency
1,COC(=O)C=CC(=NNc1ccccc1)c1ccccc1,active: 7.94 µM
2,CCCCOC(=O)c1ccc(NC(=O)c2cc(Cl)ccc2OC)cc1,"inconclusive [inhibitor, single point]"
3,COC(=O)c1ccc(NC(=O)CC2C(=O)N(c3cccc(C)c3)C(=O)N2C2CCCC2)cc1 (stereo not given),inactive
4,Cc1cc(C)cc(NC(=O)CN(Cc2ccccc2)S(C)(=O)=O)c1,"inconclusive [inhibitor, partial curve, poor fit]"
5,CCOC(=O)C/C(C)=N/NC(=O)C1CC1(c1ccccc1)c1ccccc1 (stereo not given),"inconclusive [inhibitor, single point]"
6,CC(C)C[C@H]1C(=O)N2CCC[C@H]2[C@]2(O)O[C@](NC(=O)C3C=C4c5cccc6[nH]c(Br)c(c56)C[C@H]4N(C)C3)(C(C)C)C(=O)N12 (stereo not given in full),inactive
7,COc1cccc(-c2nnc3sc(CN4CCCCC4)cn23)c1,"inconclusive [inhibitor, full curve, poor fit]"
8,Cc1ccc(Nc2nc(-c3cccnc3)nc3ccccc23)cc1,"inconclusive [inhibitor, partial curve]"
9,Cc1ccc(-c2ccc(/C=N\n3cnnc3)o2)c(Br)c1,"inconclusive [inhibitor, partial curve, poor fit]"
10,O=C(CSC1=NS(=O)(=O)c2cc(Cl)ccc2N1)Nc1ccccc1C(F)(F)F,"inconclusive [inhibitor, single point]"
11,O=C(NCCc1ccccc1)C1CCN(S(=O)(=O)c2cccc3nonc23)CC1,inactive
12,c1ccc(COc2ccccc2CNC2CCCC2)cc1,"inconclusive [inhibitor, partial curve, poor fit]"
13,O=C1/C(=C\c2ccc(C(F)(F)F)cc2)CSc2sccc21,"inconclusive [inhibitor, single point]"
14,O=C(CCn1ccc2cc(S(=O)(=O)N3CCCC3)ccc21)NCc1ccccc1Cl,"inconclusive [inhibitor, partial curve, poor fit]"
15,CCn1nc(C)c2c(-c3ccccc3)cc(=O)n(C(C)C(=O)NCCc3ccccc3)c21 (stereo not given),"inconclusive [inhibitor, partial curve, poor fit]"
16,CCc1nn2c(=O)cc(COC(=O)c3ccccc3NC(=O)c3cccs3)nc2s1,inactive
17,CCc1ccc(NS(=O)(=O)c2c(C)noc2C)cc1,"inconclusive [inhibitor, single point]"
18,CCOCCCNCc1cn(-c2ccc(F)cc2F)nc1-c1ccccc1C,"inconclusive [inhibitor, partial curve, poor fit]"
19,CCOC(=O)N1CCN(CC(c2ccccc2)c2ccccc2)CC1,"inconclusive [inhibitor, partial curve, poor fit]"
20,CCN(CC)c1ccc(C2C(C(=O)OC(C)C)C(=O)CC(C)(O)C2C(=O)OC(C)C)cc1 (stereo not given),"inconclusive [inhibitor, single point]"
